Here are results for six substances from publication PMC11850129.

The chains behind the UniProt entries cited, without tags or fusion partners.
UniProt A2BH40: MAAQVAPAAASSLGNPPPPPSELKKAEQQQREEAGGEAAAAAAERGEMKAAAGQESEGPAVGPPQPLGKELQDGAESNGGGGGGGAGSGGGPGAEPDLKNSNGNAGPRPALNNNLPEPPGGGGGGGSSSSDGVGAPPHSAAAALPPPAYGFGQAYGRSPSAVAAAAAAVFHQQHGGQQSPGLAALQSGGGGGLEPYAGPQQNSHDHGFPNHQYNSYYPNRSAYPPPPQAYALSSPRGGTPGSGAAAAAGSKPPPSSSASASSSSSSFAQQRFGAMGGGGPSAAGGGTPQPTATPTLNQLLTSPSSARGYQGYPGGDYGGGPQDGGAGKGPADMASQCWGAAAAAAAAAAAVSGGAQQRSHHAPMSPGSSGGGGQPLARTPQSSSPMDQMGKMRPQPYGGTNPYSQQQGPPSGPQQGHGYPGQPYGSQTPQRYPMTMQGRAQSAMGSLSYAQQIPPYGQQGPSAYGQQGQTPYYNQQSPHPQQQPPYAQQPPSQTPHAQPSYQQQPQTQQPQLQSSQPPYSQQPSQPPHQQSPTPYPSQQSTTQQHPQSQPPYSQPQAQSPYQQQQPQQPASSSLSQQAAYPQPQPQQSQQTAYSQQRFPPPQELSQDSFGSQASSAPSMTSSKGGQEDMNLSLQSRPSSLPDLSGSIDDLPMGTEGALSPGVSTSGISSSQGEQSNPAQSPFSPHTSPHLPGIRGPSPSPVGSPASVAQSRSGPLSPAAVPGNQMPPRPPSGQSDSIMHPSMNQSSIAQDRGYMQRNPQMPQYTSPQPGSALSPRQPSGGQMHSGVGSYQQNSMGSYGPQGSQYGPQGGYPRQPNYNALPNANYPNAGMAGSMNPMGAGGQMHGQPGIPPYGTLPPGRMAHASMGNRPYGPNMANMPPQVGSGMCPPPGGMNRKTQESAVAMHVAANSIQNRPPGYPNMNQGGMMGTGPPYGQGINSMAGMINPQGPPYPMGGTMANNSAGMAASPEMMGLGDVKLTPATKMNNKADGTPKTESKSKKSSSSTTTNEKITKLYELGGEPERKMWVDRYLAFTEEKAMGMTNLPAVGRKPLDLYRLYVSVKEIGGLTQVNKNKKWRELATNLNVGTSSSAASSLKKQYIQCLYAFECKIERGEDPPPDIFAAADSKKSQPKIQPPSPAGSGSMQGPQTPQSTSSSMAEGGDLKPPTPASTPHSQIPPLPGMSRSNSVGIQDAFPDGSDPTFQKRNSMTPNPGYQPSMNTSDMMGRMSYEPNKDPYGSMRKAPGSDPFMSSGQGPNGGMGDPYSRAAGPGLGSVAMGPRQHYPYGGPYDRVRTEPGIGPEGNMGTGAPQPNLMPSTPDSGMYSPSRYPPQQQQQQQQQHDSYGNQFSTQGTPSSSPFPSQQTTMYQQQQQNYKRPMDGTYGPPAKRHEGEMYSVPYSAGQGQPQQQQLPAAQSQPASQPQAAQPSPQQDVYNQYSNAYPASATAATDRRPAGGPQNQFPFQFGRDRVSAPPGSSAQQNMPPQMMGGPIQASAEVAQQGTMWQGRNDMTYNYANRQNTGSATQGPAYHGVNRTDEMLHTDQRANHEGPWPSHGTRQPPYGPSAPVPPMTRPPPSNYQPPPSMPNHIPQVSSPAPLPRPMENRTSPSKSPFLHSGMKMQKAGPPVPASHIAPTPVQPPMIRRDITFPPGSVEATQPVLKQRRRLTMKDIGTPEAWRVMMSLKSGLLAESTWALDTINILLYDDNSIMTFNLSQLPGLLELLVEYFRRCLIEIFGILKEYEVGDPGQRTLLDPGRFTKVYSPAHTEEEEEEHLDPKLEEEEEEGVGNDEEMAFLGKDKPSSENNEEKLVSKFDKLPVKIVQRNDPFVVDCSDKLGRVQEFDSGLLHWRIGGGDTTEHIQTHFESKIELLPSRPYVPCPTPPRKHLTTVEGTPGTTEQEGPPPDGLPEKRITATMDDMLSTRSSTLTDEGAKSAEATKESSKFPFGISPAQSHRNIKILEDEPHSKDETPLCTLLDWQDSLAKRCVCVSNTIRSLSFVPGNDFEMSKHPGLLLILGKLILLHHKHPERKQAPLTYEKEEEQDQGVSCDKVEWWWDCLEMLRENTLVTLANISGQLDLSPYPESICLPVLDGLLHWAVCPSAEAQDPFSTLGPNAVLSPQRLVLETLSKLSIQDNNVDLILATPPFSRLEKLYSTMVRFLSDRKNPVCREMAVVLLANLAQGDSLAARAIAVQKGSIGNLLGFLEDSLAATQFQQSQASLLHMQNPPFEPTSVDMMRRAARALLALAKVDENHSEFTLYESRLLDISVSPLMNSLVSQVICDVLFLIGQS
UniProt Q3TKT4: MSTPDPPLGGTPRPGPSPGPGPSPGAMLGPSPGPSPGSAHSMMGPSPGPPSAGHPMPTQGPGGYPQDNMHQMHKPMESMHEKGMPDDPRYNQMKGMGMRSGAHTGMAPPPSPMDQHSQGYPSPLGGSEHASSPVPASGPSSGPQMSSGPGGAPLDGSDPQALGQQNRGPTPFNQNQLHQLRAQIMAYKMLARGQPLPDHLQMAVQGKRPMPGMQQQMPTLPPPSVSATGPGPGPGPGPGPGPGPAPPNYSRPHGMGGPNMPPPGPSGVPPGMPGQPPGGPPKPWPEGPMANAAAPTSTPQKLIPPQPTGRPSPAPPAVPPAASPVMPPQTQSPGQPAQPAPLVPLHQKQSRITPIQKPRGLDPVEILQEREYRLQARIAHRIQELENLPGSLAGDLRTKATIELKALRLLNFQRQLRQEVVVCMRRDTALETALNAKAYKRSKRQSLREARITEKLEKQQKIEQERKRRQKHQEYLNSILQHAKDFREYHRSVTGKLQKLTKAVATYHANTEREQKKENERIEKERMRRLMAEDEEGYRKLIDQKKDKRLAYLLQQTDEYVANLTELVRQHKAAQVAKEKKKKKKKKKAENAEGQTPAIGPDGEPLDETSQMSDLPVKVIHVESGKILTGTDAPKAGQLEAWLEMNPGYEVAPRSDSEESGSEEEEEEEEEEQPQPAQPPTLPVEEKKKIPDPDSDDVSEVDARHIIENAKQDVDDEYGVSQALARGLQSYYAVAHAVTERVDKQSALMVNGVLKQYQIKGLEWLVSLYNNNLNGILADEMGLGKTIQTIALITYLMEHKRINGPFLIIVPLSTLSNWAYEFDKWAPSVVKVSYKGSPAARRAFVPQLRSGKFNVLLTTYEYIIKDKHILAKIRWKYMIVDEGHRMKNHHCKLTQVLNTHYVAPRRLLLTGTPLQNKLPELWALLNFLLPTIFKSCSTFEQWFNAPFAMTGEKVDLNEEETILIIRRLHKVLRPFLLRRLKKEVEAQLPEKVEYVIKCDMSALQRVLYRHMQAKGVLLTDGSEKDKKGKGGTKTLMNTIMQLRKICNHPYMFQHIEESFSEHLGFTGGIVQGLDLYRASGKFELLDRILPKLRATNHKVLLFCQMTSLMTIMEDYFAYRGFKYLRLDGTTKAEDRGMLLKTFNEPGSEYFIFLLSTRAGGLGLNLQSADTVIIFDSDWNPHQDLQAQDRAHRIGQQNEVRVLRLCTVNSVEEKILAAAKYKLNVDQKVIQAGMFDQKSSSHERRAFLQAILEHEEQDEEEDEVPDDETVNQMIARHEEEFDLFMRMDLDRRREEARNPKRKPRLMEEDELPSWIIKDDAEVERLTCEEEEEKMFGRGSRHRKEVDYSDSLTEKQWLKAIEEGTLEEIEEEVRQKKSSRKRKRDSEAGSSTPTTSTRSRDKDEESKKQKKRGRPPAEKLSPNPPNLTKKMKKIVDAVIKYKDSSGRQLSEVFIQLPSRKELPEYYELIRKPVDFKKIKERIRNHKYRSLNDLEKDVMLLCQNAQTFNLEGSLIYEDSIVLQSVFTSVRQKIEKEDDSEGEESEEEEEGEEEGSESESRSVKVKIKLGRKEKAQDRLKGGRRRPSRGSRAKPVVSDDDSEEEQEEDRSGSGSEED
UniProt P35222: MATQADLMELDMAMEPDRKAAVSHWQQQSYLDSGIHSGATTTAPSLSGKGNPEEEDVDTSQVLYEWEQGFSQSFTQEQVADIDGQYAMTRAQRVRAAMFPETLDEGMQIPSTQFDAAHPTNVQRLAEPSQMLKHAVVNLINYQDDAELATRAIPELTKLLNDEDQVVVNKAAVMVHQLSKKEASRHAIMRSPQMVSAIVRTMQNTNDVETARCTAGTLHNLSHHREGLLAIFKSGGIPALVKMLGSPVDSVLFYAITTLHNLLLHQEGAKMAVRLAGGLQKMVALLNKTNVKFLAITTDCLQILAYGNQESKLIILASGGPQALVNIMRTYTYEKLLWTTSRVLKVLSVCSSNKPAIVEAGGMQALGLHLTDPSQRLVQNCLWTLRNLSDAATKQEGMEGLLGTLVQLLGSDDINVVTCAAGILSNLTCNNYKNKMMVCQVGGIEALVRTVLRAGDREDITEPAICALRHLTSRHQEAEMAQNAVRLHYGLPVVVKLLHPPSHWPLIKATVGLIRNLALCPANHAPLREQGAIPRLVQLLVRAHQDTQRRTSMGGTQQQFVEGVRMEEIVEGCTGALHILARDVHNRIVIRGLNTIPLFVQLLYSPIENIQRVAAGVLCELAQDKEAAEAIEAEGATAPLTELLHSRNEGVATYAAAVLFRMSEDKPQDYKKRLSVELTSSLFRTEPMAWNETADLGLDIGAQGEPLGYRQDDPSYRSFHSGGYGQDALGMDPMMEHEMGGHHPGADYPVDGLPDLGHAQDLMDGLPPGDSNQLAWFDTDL
UniProt Q9Y265: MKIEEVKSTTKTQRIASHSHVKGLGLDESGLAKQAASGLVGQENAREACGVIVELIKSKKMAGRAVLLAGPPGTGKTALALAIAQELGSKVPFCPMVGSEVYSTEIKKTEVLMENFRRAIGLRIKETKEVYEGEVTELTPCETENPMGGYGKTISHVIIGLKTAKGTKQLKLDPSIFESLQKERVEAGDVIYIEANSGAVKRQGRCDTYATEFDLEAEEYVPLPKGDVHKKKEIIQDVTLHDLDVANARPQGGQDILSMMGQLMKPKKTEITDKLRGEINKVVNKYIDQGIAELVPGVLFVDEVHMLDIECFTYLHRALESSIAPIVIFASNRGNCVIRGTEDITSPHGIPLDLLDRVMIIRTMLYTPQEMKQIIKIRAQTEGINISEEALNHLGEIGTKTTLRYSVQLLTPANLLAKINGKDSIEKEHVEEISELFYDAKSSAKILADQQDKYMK
UniProt Q08874: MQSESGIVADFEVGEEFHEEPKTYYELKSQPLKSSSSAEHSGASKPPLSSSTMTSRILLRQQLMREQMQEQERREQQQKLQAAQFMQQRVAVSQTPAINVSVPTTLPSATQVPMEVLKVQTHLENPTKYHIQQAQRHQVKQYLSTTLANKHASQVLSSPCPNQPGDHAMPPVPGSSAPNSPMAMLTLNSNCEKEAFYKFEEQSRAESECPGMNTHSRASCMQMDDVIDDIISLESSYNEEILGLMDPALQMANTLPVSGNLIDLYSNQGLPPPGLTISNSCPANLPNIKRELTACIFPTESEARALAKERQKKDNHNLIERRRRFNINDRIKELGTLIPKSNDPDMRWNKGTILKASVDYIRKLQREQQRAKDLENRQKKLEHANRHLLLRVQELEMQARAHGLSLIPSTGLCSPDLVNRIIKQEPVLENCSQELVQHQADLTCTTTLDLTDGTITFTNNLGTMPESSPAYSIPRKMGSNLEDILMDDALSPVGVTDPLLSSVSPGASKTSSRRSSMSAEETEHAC
UniProt O54941: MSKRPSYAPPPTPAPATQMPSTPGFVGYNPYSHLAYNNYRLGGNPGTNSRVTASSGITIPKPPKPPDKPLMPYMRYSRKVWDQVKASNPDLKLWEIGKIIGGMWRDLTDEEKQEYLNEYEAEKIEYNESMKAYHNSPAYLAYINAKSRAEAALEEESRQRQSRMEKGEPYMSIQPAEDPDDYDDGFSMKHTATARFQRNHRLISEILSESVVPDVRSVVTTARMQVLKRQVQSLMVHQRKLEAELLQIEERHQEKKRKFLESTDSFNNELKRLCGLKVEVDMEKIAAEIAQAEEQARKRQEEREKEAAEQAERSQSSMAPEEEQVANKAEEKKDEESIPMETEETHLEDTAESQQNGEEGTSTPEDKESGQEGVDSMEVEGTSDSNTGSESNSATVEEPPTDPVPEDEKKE

Results are given in words; binding and its absence hold for the method and conditions named. In cells and extracts the contact can be indirect. Some binding calls cover weakened binding; strength is not graded here. For some assays here: Where a sequence is shown, tags or fusion partners need not be part of it.

In experiment [1] the target is T1, Histidine triad nucleotide binding protein1 (HINT1) (mouse (endogenous in P19.CL6 cells and mouse heart)) (UniProt P70349).
T1 sequence: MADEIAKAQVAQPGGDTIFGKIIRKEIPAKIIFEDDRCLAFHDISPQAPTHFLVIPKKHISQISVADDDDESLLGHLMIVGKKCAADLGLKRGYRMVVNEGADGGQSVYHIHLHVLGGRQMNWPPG
Description: co-IP; endogenous HINT1 precipitated with anti-HINT1 antibody from heart tissue lysates of young (3-month-old) and aged (24-26-month-old) mice; 1% Triton X-100 lysis buffer, overnight at 4 °C, Dynabeads Protein G; immunoblot. A general note: Immunoblotting shows a protein as a band on a membrane.

Experiment [2] has as its target T1, Histidine triad nucleotide binding protein1 (HINT1) (mouse (endogenous in P19.CL6 cells and mouse heart)). Put plainly: co-IP; endogenous HINT1 precipitated with anti-HINT1 antibody (control: normal rabbit IgG) from P19.CL6 cell lysates, also control and Smarce1 KO P19.CL6 lines; 1% Triton X-100 lysis buffer (20 mM Tris-HCl, 150 mM NaCl, pH 7.5), overnight at 4 °C, Dynabeads Protein G; immunoblot.

Experiment [3] addresses AT-rich interactive domain-containing protein 1 (ARID1A) (mouse (endogenous in P19.CL6 cells and mouse heart)) (UniProt A2BH40). Description: co-IP; endogenous ARID1A precipitated with anti-ARID1A antibody from heart tissue lysates of young (3-month-old) and aged (24-26-month-old) mice; 1% Triton X-100 lysis buffer, overnight at 4 °C, Dynabeads Protein G; immunoblot.
The next experiment concerns the target T2, Flag-tagged HINT1 (UniProt P70349).
T2 sequence: T1 sequence
Description: co-IP; Flag-tagged HINT1 precipitated with Anti-DDDDK-tag mAb-Magnetic Beads from lysates of transfected HEK293 cells (alone or with HA-tagged MITF), 2 h at 4 °C, 1% Triton X-100 lysis buffer; immunoblot for HA-tag, Pontin and β-catenin.

With “AT-rich interactive domain-containing protein 1 (ARID1A) (from UniProt A2BH40 1-2283)”, the binding result in experiment [1] and in experiment [2] was “binds” in each case.

With “BRM/SWI2-related gene-1 (BRG1) (from UniProt Q3TKT4 1-1613)”, the binding entry in experiment [1], in experiment [3] and in experiment [2] was “binds” throughout.

For β-catenin (from UniProt P35222 1-781), the binding entry with Flag-tagged HINT1 is “no binding”.

As for Pontin (from UniProt Q9Y265 1-456), the binding entry with Flag-tagged HINT1 was “no binding”.

For the substance “HA-tagged MITF (from UniProt Q08874 1-526)”, the binding result with Flag-tagged HINT1 was “no binding”.

Regarding “SWI/SNF-related matrix associated actin-dependent regulator of chromatin E1 (SMARCE1) (from UniProt O54941 1-411)”, the binding result in experiment [1], in experiment [3] and in experiment [2] was “binds” throughout.
